Results on 54 molecules are retold here after publication PMC4336329 (PLoS ONE, 2015).

Out of some 310,000 compounds screened, about 14,000 (4.5%) showed an effect of 50% or more. The effect is printed as a negative number. This is one part of the list.
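Also: peak tail current of the secondary pulse compared with the same well before compound.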

The test deals with human ether-à-go-go-related gene (hERG) potassium channel (human, UniProt Q12809). Description: primary screen, population patch clamp on CHO cells stably expressing hERG.
Chain of human ether-à-go-go-related gene (hERG) potassium channel (Q12809 whole entry, looked up): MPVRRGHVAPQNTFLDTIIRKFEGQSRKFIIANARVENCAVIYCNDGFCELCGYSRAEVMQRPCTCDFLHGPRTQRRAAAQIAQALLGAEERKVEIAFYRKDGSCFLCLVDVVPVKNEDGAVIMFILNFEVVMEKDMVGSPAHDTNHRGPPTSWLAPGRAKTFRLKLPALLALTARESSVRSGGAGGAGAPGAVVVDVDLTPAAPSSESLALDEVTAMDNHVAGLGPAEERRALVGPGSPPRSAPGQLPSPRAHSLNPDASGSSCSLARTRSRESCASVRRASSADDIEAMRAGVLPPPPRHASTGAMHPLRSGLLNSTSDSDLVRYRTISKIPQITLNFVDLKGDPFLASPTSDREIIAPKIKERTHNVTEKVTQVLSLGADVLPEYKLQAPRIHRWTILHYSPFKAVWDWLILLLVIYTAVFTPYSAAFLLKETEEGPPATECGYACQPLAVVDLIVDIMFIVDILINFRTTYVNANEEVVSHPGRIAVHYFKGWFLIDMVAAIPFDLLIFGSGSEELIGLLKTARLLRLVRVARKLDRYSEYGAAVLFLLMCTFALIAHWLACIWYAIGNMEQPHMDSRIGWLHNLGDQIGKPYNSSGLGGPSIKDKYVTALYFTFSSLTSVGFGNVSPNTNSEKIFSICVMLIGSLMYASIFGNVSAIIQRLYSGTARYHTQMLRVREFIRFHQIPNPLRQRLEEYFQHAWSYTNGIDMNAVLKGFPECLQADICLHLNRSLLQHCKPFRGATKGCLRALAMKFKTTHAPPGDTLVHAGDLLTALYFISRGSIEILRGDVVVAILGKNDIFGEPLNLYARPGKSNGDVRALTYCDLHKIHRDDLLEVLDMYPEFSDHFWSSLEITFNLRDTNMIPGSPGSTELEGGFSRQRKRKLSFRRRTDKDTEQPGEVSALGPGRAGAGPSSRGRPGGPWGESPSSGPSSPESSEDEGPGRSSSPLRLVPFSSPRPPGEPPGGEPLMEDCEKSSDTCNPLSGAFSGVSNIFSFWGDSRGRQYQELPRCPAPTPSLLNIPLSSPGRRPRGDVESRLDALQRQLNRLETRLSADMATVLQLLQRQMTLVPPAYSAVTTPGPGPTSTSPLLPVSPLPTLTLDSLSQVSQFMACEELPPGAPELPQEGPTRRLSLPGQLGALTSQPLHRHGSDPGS
`Cc1ccc(NC(=O)CS(=O)CC(=O)N(CC(=O)NC2CCCC2)c2ccc3c(c2)OCCO3)cc1` (stereo not drawn): the “hERG current change (%, negative = inhibition) at 10uM” value was 18%.
As for `Cc1ccsc1/C=N/N1CCN(C2c3ccccc3-c3ccccc32)CC1`, the figure is 18.1%.
As for `CCOc1ccc(OCC(=O)Nc2ccccc2N2CCCC2)cc1`, the figure is -13.5%; as for `Cc1cc(CNC(=O)Cn2nc(C)c([N+](=O)[O-])c2C)c2ccccc2n1`, 1.76%.
For `Cc1nn(CCC(=O)NCc2ccc(N(C)C)cc2)c(=O)c2nn(-c3ccccc3)c(C)c12` the value was 3%; for `COc1ccc(-c2nn(-c3ccccc3)cc2/C=C/C(=O)OCC(=O)Nc2ccccc2C#N)cc1`, 2.21%.
Turning to `COC(=O)Cc1csc(Nc2ccc(F)c(Cl)c2)n1`, the “hERG current change (%, negative = inhibition) at 10uM” value is -3.05%.
As for `CCCc1nc2ccc(N)cc2c(=O)n1Cc1ccccc1Cl`, the figure is -14.7%; as for `COc1ccc(-n2nc3c(N4CCC(C(=O)NCc5ccccc5C)CC4)nnc(C)c3c2C)cc1`, -20.6%; as for `CC(=O)c1ccccc1NS(C)(=O)=O`, 8.19%.
As for `O=C(Nc1ccc(C(=O)N2CCC(O)(c3ccc(Cl)c(C(F)(F)F)c3)CC2)cc1)c1ccc(Br)o1`, the figure is 8.21%; as for `O=C(Nc1nnc(C2CCCO2)s1)c1ccc(Br)cc1` (stereo not drawn), -5.9%; as for `CCCCCOC(=O)C1[C@H]2C(=O)N(c3ccccc3CC)C[C@]23C=C[C@H]1O3` (stereo partly drawn), 1.26%.
For `FC(F)(F)Oc1ccc(NC(=S)NCc2ccccc2)cc1` the value was 4.62%; for `CCc1nc(NC(=O)NS(=O)(=O)c2ccccc2C(=O)OC)nc(OC)n1`, 32.3%; for `CCOC(=O)c1c(C)oc2ccc(OCc3cc(C(=O)OC)oc3C)cc12`, 2.78%.
With `COc1ccc(-c2nc(C#N)c(NCCCn3ccnc3)o2)cc1OC`, the “hERG current change (%, negative = inhibition) at 10uM” value was -1.58%.
For `COc1ccccc1/C=C/C(=O)OCC(=O)Nc1ccc2c(c1)OCCO2` the value was 1.23%; for `COC(=O)c1ccc(C(NC(=O)OCc2ccccc2)/C(C)=C/[C@@H](C)C(=O)NCc2ccc(OC)c(OC)c2)cc1` (stereo partly drawn), -6.64%; for `O=C(Nc1ccccc1)N1CCC(=S)Nc2ccccc21`, -0.471%.
As for `COC(=O)c1cc2occc2n1CC(=O)Nc1ccc(C)cc1C`, the figure is 14.1%; as for `COc1ccc(CN2CCN(C(=O)C3CCC(CNS(=O)(=O)c4ccccc4)CC3)CC2)c(OC)c1OC` (stereo not drawn), -40.6%; as for `O=C(C1CCN(c2nnc(-n3cccc3)s2)CC1)N1CCc2ccccc2C1`, -60.3%.
On to `CC(C)(C)NC(=O)C1CCN(S(=O)(=O)c2ccc(Br)cc2)CC1`, for which the “hERG current change (%, negative = inhibition) at 10uM” value is on record as 2.91%.
Regarding `CNC(=O)CN(c1ccc(OC)cc1)S(=O)(=O)c1ccc(F)cc1`, the “hERG current change (%, negative = inhibition) at 10uM” value is listed as -1.59%.
For `CCOC(=O)c1ccc(NC(=O)C2CC(=O)N=C(N)S2)cc1` (stereo not drawn) the value was 9.4%; for `CCCCC(=O)Nc1nnc(SCC(=O)NCC2CCCO2)s1` (stereo not drawn), -24.8%.
For `O=C(Nc1nccs1)c1ccc(COc2c(F)c(F)cc(F)c2F)cc1`, the “hERG current change (%, negative = inhibition) at 10uM” value was 20%.
As for `O=C(c1cccs1)N1CCC2(O)CCCCC2C1c1ccc(F)cc1` (stereo not drawn), the figure is 1.06%.
As for `NCCS(=O)(=O)O`, the figure is 37.3%; as for `Cc1ccc(S(=O)(=O)N(C)C)cc1NC(=O)COC(=O)CN1C(=O)c2ccccc2C1=O`, 1.85%.
On to `Cc1csc(NC(=O)CCn2c(=O)oc3ccc(Cl)cc32)n1`, for which the “hERG current change (%, negative = inhibition) at 10uM” value was 2.72%.
As for `O=C(O)CCCNS(=O)(=O)/C=C/c1ccccc1`, the figure is 13.2%; as for `Cc1cc(NC(=O)CSc2nccn2-c2ccc([N+](=O)[O-])cc2)no1`, -4.72%; as for `COC(=O)c1sccc1NC(=S)N1CCCCC1C` (stereo not drawn), -25.6%.
For the molecule `O=C(O)c1cc(-c2ccc3c(c2)OCO3)nc2ccccc12`, the “hERG current change (%, negative = inhibition) at 10uM” value was 2.33%.
As for `CN(C(=O)c1ccccc1C(=O)OCC(=O)Nc1cccc(Br)c1)c1ccccc1`, the “hERG current change (%, negative = inhibition) at 10uM” value was -6.15%.
Turning to `CCC(C(=O)N1CCN(c2ccccn2)CC1)n1nc(C)n2c(cc3occc32)c1=O` (stereo not drawn), the “hERG current change (%, negative = inhibition) at 10uM” value is listed as -5.95%.
`OC1CCN(C(=S)NCCc2ccccc2)CC1`: the “hERG current change (%, negative = inhibition) at 10uM” value was -0.627%.
As for `CCCN(CC(=O)Nc1ccccc1OC)C(=O)CSc1ccc(Br)cc1C`, the figure is -16.1%; as for `O=C(NC(=S)N1CCN(C/C=C/c2ccccc2)CC1)c1ccco1`, -35%; as for `CC(C)(O[C@@H]1O[C@H](CO)[C@@H](O)[C@H](O)[C@H]1O)[C@H]1Cc2cc3ccc(=O)oc3cc2O1`, 13.6%.
For `CCOC(=O)CC(NC(=O)Cn1nnc(-c2ccccc2F)n1)c1ccc(OC)cc1` (stereo not drawn) the value was -4.07%; for `O=C(Cc1csc(Nc2nc(=S)[nH]c3ccccc23)n1)NCc1ccc(Cl)cc1`, -2.07%; for `CCN(CC)S(=O)(=O)c1ccc(N2CCOCC2)c(NC(=O)C(C)Oc2ccc(F)cc2)c1` (stereo not drawn), 3.94%.
For `Cc1ccc(CN2CCN(Cc3ccncc3)CC2CCO)o1` (stereo not drawn) the value was -8.3%.
On to `COc1ccccc1NS(=O)(=O)c1ccc(Cl)c(NC(=O)CN2C(=O)c3ccccc3C2=O)c1`, for which the “hERG current change (%, negative = inhibition) at 10uM” value is given as -44.4%.
As for `CC(C)CNP(=S)(c1ccccc1)C(C)(C)C` (stereo not drawn), the figure is -3.31%; as for `O=C(CCC1CCCN(C(=O)c2ccccc2Cl)C1)N1CCN(c2ccccn2)CC1` (stereo not drawn), -10.7%; as for `CC1CCN(C(=O)CC#N)CC1`, 14.5%.
As for `COc1cccc(CNC(=O)COc2cccc(-n3cnnn3)c2)c1`, the figure is -18.9%; as for `CCOC(=O)N1CCN(c2ccc(N3C(=O)CCCC3=O)cc2[N+](=O)[O-])CC1`, 40.8%.
For `NC(=O)[C@@H]1CCCCNc2c(I)cc([N+](=O)[O-])cc2C(=O)N[C@@H](CCC(=O)O)C(=O)N[C@@H](CO)C(=O)N1` the value was -1.35%.
As for `COc1ccc(CNC(=O)N[C@@H](CC(C)C)C(=O)O)cc1OC`, the “hERG current change (%, negative = inhibition) at 10uM” value is -0.247%.
